Inhibition data for 97 compounds are collected here from PubChem BioAssay AID485344 (National Center for Advancing Translational Sciences (NCATS), 2010).

Each structure is given as a SMILES string. Among all 340,000 compounds or so, about 6,900 (2%) were called active. Cut-off read from the data, not from the text of the source: active = inhibition above about 30%; inactive = below that, where a call was filed. The entries are a selection whose mix differs from that of the whole data set. Entries without a call were filed so in the source.

The term inhibition denotes the drop in the measured response relative to a control, in per cent.

UniProt P14416, sequence (P14416 whole entry, looked up): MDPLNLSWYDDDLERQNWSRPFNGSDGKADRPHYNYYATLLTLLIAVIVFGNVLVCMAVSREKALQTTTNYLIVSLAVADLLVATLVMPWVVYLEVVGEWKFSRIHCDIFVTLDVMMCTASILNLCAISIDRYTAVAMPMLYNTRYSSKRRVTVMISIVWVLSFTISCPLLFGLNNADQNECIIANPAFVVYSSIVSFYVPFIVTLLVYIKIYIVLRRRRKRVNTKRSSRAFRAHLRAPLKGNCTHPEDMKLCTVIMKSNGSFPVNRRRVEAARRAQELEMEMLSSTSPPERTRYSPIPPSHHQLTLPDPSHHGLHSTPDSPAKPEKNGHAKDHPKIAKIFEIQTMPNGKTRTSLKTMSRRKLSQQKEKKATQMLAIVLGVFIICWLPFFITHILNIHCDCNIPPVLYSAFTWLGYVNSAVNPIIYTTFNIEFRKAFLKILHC

The assay deals with D(2) dopamine receptor (Homo sapiens) (UniProt P14416). Put plainly: HTS Assay for Allosteric Antagonists of the Human D2 Dopamine Receptor: Primary Screen for Antagonists. Note: 0% is about no effect. As to conditions: HEK293 TREx D2 cells, calcium flux, dopamine EC80; at 10 µM; stronger effect = higher value. Put shortly:
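Compounds are added to dye-loaded, induced HEK293 T-REx cells coupled to calcium release via D2; after a 3 min kinetic read an EC80 dopamine stimulus is given and fluorescence is recorded for 3 more min.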
Background: Calcium assays in cells follow changes in intracellular calcium, usually with a dye or a luminescent sensor.
For `CN(C)S(=O)(=O)c1ccc(Cl)c(NC(=O)CN2CCc3ccccc3C2)c1`, the inhibition was active: 87.3%.

Turning to `CCOC(=O)c1cc(OC(=O)c2ccccc2F)n(-c2ccccc2)n1`, the inhibition worked out at 11.4%.

With `CC1CCc2onc(C(=O)Nc3ccc(Cl)cc3)c2C1` (configuration not stated), the inhibition amounted to 15.6%.

As to `COc1ccc(-c2noc(CNC(=O)c3cc(OC)c(OC)c(OC)c3)n2)cc1`, the inhibition came to 8.37%.

As to `COc1cccc(-c2nc(-c3ccc(Br)o3)no2)c1`, the inhibition stood at 3.27%.

For the compound `Cc1[nH]c2ccc(C(=O)NCCCN3CCCCC3)cc2c1C`, the inhibition came out at 3.46%.

As to `CC(=O)N1CCC(N(Cc2ccc(C)o2)C(=O)Nc2ccccc2F)CC1`, the inhibition was found to be 13.5%.

With `Cc1nc2c(c(C)c1CCC(=O)NCc1ccc(F)cc1)c(=O)n(C)c(=O)n2C`, the inhibition was -1.97%.

Take `CCOc1ccccc1NC(=O)CSc1c2c(nc3ccc(Cl)cc13)CCCC2`: the inhibition is -5.32%.

Take `CCOC(=O)C1CCCN(S(=O)(=O)c2cc(-c3onc(C)c3C)ccc2OC)C1` (configuration not stated): the inhibition was 3.62%.

`CCc1c(-c2ccccc2)nc2ccccc2c1C(=O)NC(C)c1ccccc1` (configuration not stated): the inhibition came out at 5.89%.

On to `CCOc1ccccc1NC(=O)c1nc(S(=O)(=O)Cc2cccc(C)c2)ncc1Cl`, for which the inhibition was -11.5%.

Turning to `CN(C)c1nc(SCC(=O)Nc2ccccc2)nc(N2CCOCC2)n1`, the inhibition was active: 31.3%.

For the compound `COc1ccccc1C(c1c(O)cc(C)n(Cc2ccco2)c1=O)N1CCCCC1` (configuration not stated), the inhibition is -11.1%.

As to `CCC(Oc1ccccc1F)C(=O)Nc1cc(-c2ccccc2)no1` (configuration not stated), the inhibition was determined as 6.65%.

`COc1ccc(C(=O)NCCn2cc(SCC(=O)Nc3ccc4c(c3)OCCO4)c3ccccc32)cc1`: the inhibition was -4.2%.

In the case of `Cc1cccc(N2CCN(S(=O)(=O)c3cc(C(=O)Nc4ccc(Oc5ccccc5)cc4)ccc3F)CC2C)c1` (configuration not stated), the inhibition came out at 6.36%.

For the compound `COC(=O)c1ccc(NC(=O)c2c(NCc3cccc(F)c3)sc3c2CCCC3)cc1`, the inhibition was -8.18%.

As for `Cc1cc2c(cc1S(=O)(=O)N(CCN(C)C)Cc1ccccc1)OCC(=O)N2`, the inhibition turned out to be 9.04%.

In the case of `C=CCn1c(SCC(=O)Nc2ccc(O)cc2)nc2sc(CC)cc2c1=O`, the inhibition was active: 31.1%.

Regarding `CCN(CC)c1ccc2cc(-c3nnc(Nc4ccc(C)cc4)s3)c(=O)oc2c1`, the inhibition is -14.5%.

In the case of `COc1ccc2c(C)c(CCC(=O)NCCc3ccccc3)c(=O)oc2c1`, the inhibition was -11.1%.

In the case of `COC(=O)C1=C(CS(=O)(=O)c2ccc(C)cc2C)NC(=O)NC1c1ccc(C)cc1` (configuration not stated), the inhibition was -0.218%.

In the case of `Cc1cc(C)c(S(=O)(=O)NCc2ccc3c(c2)CCN3C(=O)c2ccccc2)c(C)c1`, the inhibition is 9.49%.

As for `Oc1cc2c(cc1CN1CCc3ccccc3C1)OCO2`, the inhibition is active: 32.6%.

For `Cc1nn(-c2ccccc2)c2sc(C(=O)Nc3ccc(Cl)cc3Cl)cc12`, the inhibition was 8.09%.

On to `CCCCN(C)CCNC(=O)c1nn(-c2ccc(OC)c(Cl)c2)c(=O)c2c1c1ccccc1n2C`, for which the inhibition is -2.2%.

In the case of `Cc1ccc2c(=O)c(C(=O)c3ccc(F)cc3)cn(CC(=O)NCc3ccco3)c2n1`, the inhibition is active: 33.1%.

On to `Cc1cc(OCCN2CCCCCC2)ccc1[N+](=O)[O-]`, for which the inhibition was active: 33.9%.

Take `COc1ccc(C(=O)Nc2nnc(SCc3cc(=O)c4cc(C)ccc4[nH]3)s2)cc1OC`: the inhibition is -9.87%.

Turning to `Cc1cccn2c(=O)c(C(=O)N3CCN(c4ccccc4F)CC3)cnc12`, the inhibition amounted to 1.36%.

Take `Cc1ccc(-n2c(=O)c3ccc(C(=O)NCc4ccco4)cc3n(Cc3ccccc3C#N)c2=O)cc1`: the inhibition is -14.4%.

Turning to `Cc1ccc(NC(=O)Cn2c(=O)n(Cc3ccco3)c(=O)c3ccccc32)c(C)c1`, the inhibition was 2.09%.

On to `COc1ccc(NC(=O)c2ccc3c(c2)sc2nc(-c4ccc(OC)cc4)cn23)cc1`, for which the inhibition was -2.23%.

Turning to `CCN(CC)c1cc2c(cc1F)c(=O)c(S(=O)(=O)c1cccc(C)c1)cn2C`, the inhibition is -22.7%.

`CCOc1ccc(C2CC(=O)N(c3cccc(F)c3)C3=C2C(=O)OC3)cc1` (configuration not stated): the inhibition turned out to be 8.4%.

On to `COc1ccc(CCNC(=O)c2ccc(Cn3c(=O)c4ccccc4n(Cc4cccc(Cl)c4)c3=O)cc2)cc1OC`, for which the inhibition was 8.66%.

Take `CCOc1ccccc1NC(=O)C(CC)Sc1nc2ccncc2[nH]1` (configuration not stated): the inhibition was -27.9%.

Turning to `COc1ccc(NCc2cc3cc4c(cc3n(CC(=O)Nc3cc(C)ccc3C)c2=O)OCCO4)cc1`, the inhibition is -9.46%.

As for `CC(C)c1ccc(NS(=O)(=O)c2ccc3nc(-c4ccccc4)[nH]c3c2)cc1`, the inhibition is 14.8%.

For `Cc1nn2c(=O)cc(COC(=O)c3ccccc3NC(=O)C(C)Oc3ccccc3)nc2s1` (configuration not stated), the inhibition is -3.11%.

Regarding `CCOc1ccc(CN2CCc3nc(Nc4ccc5c(c4)OCCO5)ncc3C2)cc1`, the inhibition was -4.88%.

As for `O=C(c1ccccc1Cl)N1CCCCC1CCN1CCCCC1` (configuration not stated), the inhibition was 4.29%.

Consider `COc1ccc(NC(=O)C(C)N(c2ccccc2)S(C)(=O)=O)cc1` (configuration not stated), for which the inhibition was -3.08%.

On to `COc1ccc(C)cc1NC(=O)Cn1c(=O)n(Cc2nc(C)no2)c(=O)c2ccccc21`, for which the inhibition is -3.22%.

Regarding `Cc1cccc(NC(=O)CSc2nc(-c3ccco3)cc(C(F)(F)F)n2)c1C`, the inhibition turned out to be 11.1%.

Turning to `Cc1cccc(N2CCN(S(=O)(=O)c3csc(C(N)=O)c3)CC2)c1C`, the inhibition was found to be 21.6%.

`Cc1ccc(N(Cc2cccs2)C(=O)c2ccccc2Cl)cc1`: the inhibition worked out at 4.26%.

For `Cc1ccc(-c2nc3ncccc3o2)cc1NC(=O)c1ccc(-c2ccc(Cl)cc2)o1`, the inhibition was -16%.

Regarding `CCOC(=O)c1ccc(NC(=O)c2cc3sccc3n2Cc2ccc(Cl)cc2)cc1`, the inhibition was 1.19%.

Take `S=C(NCC1CCCO1)N1CCN(c2nc(-c3ccccc3)cs2)CC1` (configuration not stated): the inhibition is active: 66.6%.

As to `O=C(NCc1ccccc1)C(=O)NCC(c1cccs1)S(=O)(=O)c1ccccc1` (configuration not stated), the inhibition was determined as 22.6%.

As to `Cc1ccnc(NC(NC(=O)C(C)C)(C(F)(F)F)C(F)(F)F)c1`, the inhibition was active: 32.5%.

As for `CC1(C)CC(=O)c2cc(C(=O)Nc3ccccc3Cl)c(=O)n(-c3ccc(Cl)cc3)c2C1`, the inhibition was found to be 19.2%.

Regarding `COc1ccc2cc3cc(C(=O)NCc4ccccc4OC)oc3nc2c1`, the inhibition worked out at 16.5%.

On to `COc1ccc(C2=C(C)C(N3CCC(C(=O)Nc4ccc(F)cc4C)CC3)=NS2(=O)=O)cc1`, for which the inhibition amounted to 4.04%.

Turning to `Brc1cccc(-c2cnn3c(-c4ccccc4)cc(-c4ccccc4)nc23)c1`, the inhibition is -11.4%.

Consider `O=C(Nc1ccc(Cl)c(C(F)(F)F)c1)C(Cc1ccccc1)NS(=O)(=O)c1ccc(Br)s1` (configuration not stated), for which the inhibition was found to be 0.155%.

In the case of `CCOc1ccc(NC(=O)C(=O)NCc2ccco2)cc1`, the inhibition is -5.36%.

For the compound `O=C(NCCc1ccc(F)cc1)C(=O)NCC(c1ccco1)S(=O)(=O)c1cccs1` (configuration not stated), the inhibition amounted to 6.82%.

As for `CCc1ccccc1NC(=O)c1ccc2nc(C(C)C)oc2c1`, the inhibition was 1.42%.

In the case of `Cc1ccc(N(CC(=O)Nc2ccc(Br)cc2)S(=O)(=O)c2cccs2)cc1`, the inhibition was 8.53%.

As to `COc1ccc(S(=O)(=O)n2nc(C)c(S(=O)(=O)N3CCC(C)CC3)c2C)cc1OC`, the inhibition came to 7.37%.

`O=C(Nc1nnc2n1CCS2)c1ccccc1C(F)(F)F`: the inhibition is -12.6%.

In the case of `COc1cc(OC)cc(C(=O)N2CC(=O)Nc3ccc(Cl)cc3C2c2ccccc2)c1` (configuration not stated), the inhibition amounted to 1.67%.

On to `CC(C)CCNC(=O)CCC(=O)NNc1nc2ccccc2c2nc(-c3ccccc3)nn12`, for which the inhibition came out at 18.4%.

Turning to `CC(=O)c1ccc(N2CCN(C(=O)CCCCn3c(=O)[nH]c4ccsc4c3=O)CC2)cc1`, the inhibition was determined as 8.86%.

Consider `CCOc1ccc(CNS(=O)(=O)c2cc3c(cc2C)NC(=O)CO3)cc1`, for which the inhibition was -13.5%.

In the case of `Cc1cccc(NC(=O)CSc2nc3ccccc3nc2N2CCOCC2)c1C`, the inhibition turned out to be 14.6%.

As for `CCSc1nnc(NC(=O)c2cc(=O)c3cc(C)c(C)cc3o2)s1`, the inhibition amounted to 4.99%.

Take `O=C(Nc1cccc(C(F)(F)F)c1)c1cc(-c2ccc3c(c2)OCCO3)on1`: the inhibition was 22.2%.

Consider `Cc1ccc(C)c(SCC(=O)Nc2cc(S(=O)(=O)N3CCOCC3)ccc2C)c1`, for which the inhibition was active: 53.1%.

Take `CCOC(=O)c1c(-c2ccc(OC)cc2)oc2ccc(OCc3ccc(Br)cc3)cc12`: the inhibition worked out at 21.2%.

Regarding `CCc1cnc2c(c1SCC(=O)c1ccc(Cl)cc1)c(=O)n(C)c(=O)n2C`, the inhibition is -20.1%.

For the compound `COc1ccc(Cn2c(=O)c3cccnc3n(CC(=O)Nc3c(C)cc(C)cc3C)c2=O)cc1`, the inhibition came to 0.695%.

As for `CCOC(=O)c1cccc(NS(=O)(=O)c2cc(-c3cnc(C4CC4)o3)ccc2C)c1`, the inhibition was found to be 8.66%.

Consider `Cc1ccc2oc(-c3cccc(NC(=O)Cc4ccc(Cl)cc4)c3)nc2c1`, for which the inhibition is -15.1%.

Consider `Cc1ccc(Sc2c(C)nn(C(=O)c3ccc(Cl)cc3)c2C)cc1`, for which the inhibition was determined as 24.2%.

Consider `Cc1c(C(=O)OC(C)C)sc(NC(=O)C2c3ccccc3Oc3ccccc32)c1C(=O)OC(C)C`, for which the inhibition stood at 3.17%.

As for `CCOC(=O)c1c(S(=O)(=O)N2CCCC(C(=O)Nc3ccc(C)cn3)C2)c(C)n(C)c1C` (configuration not stated), the inhibition was found to be 2.63%.

Take `Cc1ccc(-n2c3nc(=O)[nH]c(=O)c-3cc3c(C)nn(-c4ccccc4)c32)cc1C`: the inhibition turned out to be 19%.

With `CC1(C)CC(=O)c2cc(C#N)c(=O)n(-c3ccc(Cl)cc3)c2C1`, the inhibition was 7.68%.

Consider `COc1ccc(NC(=O)Cn2cc(C(=O)c3ccccc3)c(=O)c3cc(OC)ccc32)c(OC)c1`, for which the inhibition amounted to 6.66%.

With `O=C(O)CCC(=O)Nc1sc2c(c1C(=O)Nc1ccccc1)CCCCC2`, the inhibition was found to be 15.6%.

Take `Cc1ccsc1CN(C(=O)c1ccc(OCC(C)C)cc1)C1CCS(=O)(=O)C1` (configuration not stated): the inhibition is 3.74%.

`CCc1ccc(NC(=O)c2ccc(F)c(S(=O)(=O)N3CCN(c4ccc(OC)cc4)CC3)c2)cc1`: the inhibition came out at 5.68%.

Take `CC(CNC(=O)CCc1cn(Cc2ccccc2Cl)c2ccccc12)c1ccccc1` (configuration not stated): the inhibition is 13%.

As to `CCOc1ccccc1NC(=O)C1CCN(S(=O)(=O)c2cccs2)CC1`, the inhibition was -1.55%.

Consider `COc1cccc(Oc2nc(C)nc3c2oc2ccccc23)c1`, for which the inhibition was -10.3%.

`Cc1cc(C)cc(NC(=O)Nc2ccc3nc(N4CCN(C)CC4)cc(C)c3c2)c1`: the inhibition was -8.67%.

For the compound `CCOc1ccc(NC(=O)Cn2ccn3nc(-c4ccc(OC)c(OC)c4)cc3c2=O)cc1`, the inhibition amounted to 9.92%.

Regarding `CCCS(=O)(=O)c1nc(S(=O)(=O)c2ccc(C)cc2)c(NCc2ccccc2Cl)s1`, the inhibition was -9.3%.

Regarding `Cc1nc(N2CCCC2)c2c(C(=O)Nc3cccc(Cl)c3)c(C)oc2n1`, the inhibition came to 14%.

`O=C1CN2C(=N1)N(Cc1ccccc1)c1ccccc12`: the inhibition is active: 70.7%.

Consider `COC(=O)c1ccc(NC(=S)NCCC2=CCCCC2)cc1`, for which the inhibition was active: 54.8%.

Regarding `COc1ccccc1CNC(=O)CCCN1C(=O)CSc2c1c(C)nn2-c1ccccc1`, the inhibition came out at 1.52%.

For `COc1ccc(-n2nc(C(=O)N3CCN(c4ccccc4OC)CC3)c3c4ccccc4n(C)c3c2=O)cc1Cl`, the inhibition is 2.75%.
